Reference: PubChem BioAssay AID485294 (National Center for Advancing Translational Sciences (NCATS), 2010)
Among all 370,000 compounds or so, about 150 (0.041%) were called active. This list was built around the results that the source calls inconclusive (neither active nor inactive); the mix of calls is not that of the screen. The call rests on the fitted dose curve; in most records, active means well fitted inhibition curve with a large enough effect; inconclusive means small, poorly fitted or top-dose-only effect; inactive means flat fitted curve, though single readings scatter. Potencies of inconclusive entries are left out as doubtful fits.

target: Beta-lactamase (Escherichia coli (strain K12)) (UniProt P00811); assay: qHTS Inhibitors of AmpC Beta-Lactamase (assay with detergent); settings: AmpC hydrolysis of nitrocefin, absorbance 480 nm, 0.01% Triton; series mostly up to 114 µM; further: nearly all actives have a fitted effect of over 25% in size
Method in brief: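 AmpC (5.3 nM in the dispensed reagent) in 20 mM phosphate pH 7.0 with 0.01% (detergent screen) or 0.0001% Triton X-100 was preincubated with compounds for 15 min at room temperature. Nitrocefin was then added from an 800 uM solution, and hydrolysis was followed at 480 nm.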
Potency means the concentration at half of the fitted maximal effect; tags describe the fitted curve by direction and shape.

UniProt P00811, sequence (P00811 whole entry, looked up): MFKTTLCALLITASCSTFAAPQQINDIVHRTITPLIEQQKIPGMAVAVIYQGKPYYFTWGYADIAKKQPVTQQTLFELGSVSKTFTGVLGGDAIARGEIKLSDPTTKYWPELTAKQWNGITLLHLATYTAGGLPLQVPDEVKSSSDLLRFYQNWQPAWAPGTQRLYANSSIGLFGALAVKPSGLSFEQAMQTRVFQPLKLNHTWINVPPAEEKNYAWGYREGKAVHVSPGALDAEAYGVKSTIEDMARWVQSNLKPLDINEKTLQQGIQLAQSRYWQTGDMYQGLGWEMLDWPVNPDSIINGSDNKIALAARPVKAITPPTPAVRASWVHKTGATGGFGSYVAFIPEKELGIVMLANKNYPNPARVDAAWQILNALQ

SMILES | Potency
CCOC(=O)N1CCN(C(=O)CS(=O)Cc2nc(-c3cccc(C)c3)oc2C)CC1 (configuration not stated) | inconclusive [inhibitor, full curve, poor fit]
CCN(CC)C(=O)C12C(=O)Oc3ccccc3C1C2(C)C(=O)c1ccc(F)cc1 (configuration not stated) | inconclusive [inhibitor, full curve, poor fit]
CCN(CC)c1ccc2cc(S(=O)(=O)c3ccc(Cl)cc3)c(=O)oc2c1 | inconclusive [inhibitor, full curve, poor fit]
CCOc1ccc(-c2nc(C#N)c(N3CCN(C)CC3)o2)cc1 | inconclusive [inhibitor, single point]
O=C(Nc1cccnc1)c1cc2c(s1)-c1ccccc1OC2 | inactive
O=c1cc(-c2ccc(O)cc2)oc2c([C@@H]3O[C@H](CO)[C@@H](O)[C@H](O)[C@H]3O)c(O)c([C@@H]3O[C@H](CO)[C@@H](O)[C@H](O)[C@H]3O)c(O)c12 | inactive
COc1ccc(CCNC(=O)c2ccc3c(c2)CCN3S(C)(=O)=O)cc1OC | inactive
CC(=O)Nc1ccc(SCC(=O)OCC(=O)NC(=O)NCc2ccco2)cc1 | inactive
COc1cccc(Nc2nc3ccccc3n3nnnc23)c1 | inconclusive [inhibitor, full curve]
Cn1c(=O)c(C(=O)Nc2cnccn2)c(O)c2ccccc21 | inactive
CSc1nc(NCCOCCO)c2sc3nc(-c4ccco4)c4c(c3c2n1)CCC4 | inconclusive [inhibitor, partial curve]
Cc1ccc(S(=O)(=O)CC(=O)Nc2nc3ccccc3s2)cc1 | inconclusive [inhibitor, single point]
O=C(COC(=O)CSc1ccc([N+](=O)[O-])cc1)NCc1cccs1 | inconclusive [inhibitor, full curve, poor fit]
COC(=O)C1=C(C)N(C)C(=O)/C1=C\c1cccs1 | inconclusive [inhibitor, single point]
Cc1cccc(NC(=S)N2CCCC2)c1 | inconclusive [inhibitor, full curve, poor fit]
CCn1ncc(Br)c1C(=O)Nc1ccn(C23CC4CC(CC(C4)C2)C3)n1 | inconclusive [inhibitor, full curve]
CCN(CC)c1ccc(-c2nc3cnccc3n2C)cc1 | inactive
O=C1NC(=Nc2ccccc2Cl)S/C1=C\c1cccc([N+](=O)[O-])c1 | inconclusive [inhibitor, partial curve, poor fit]
O=C(C#Cc1ccccc1)c1cccc([N+](=O)[O-])c1 | inconclusive [inhibitor, single point]
O=C(CC(NCc1ccccn1)C(=O)O)Nc1ccccc1Cl (configuration not stated) | inconclusive [inhibitor, single point]
COc1cccc(NC(=S)/C(=C(\[O-])c2ccc(OC(F)F)cc2)[n+]2ccccc2)c1 | inactive

SMILES | Potency
CN1CCN(C(=O)/C=C/c2cn(-c3ccccc3)nc2-c2ccc3c(c2)OCCO3)CC1 | inactive
CC(C(=O)N1c2ccccc2Sc2ccccc21)n1nnc(-c2cccs2)n1 (configuration not stated) | inconclusive [inhibitor, partial curve, poor fit]
O=C(c1cc2c(cc1Br)OCCCO2)N1CCCCC1 | inconclusive [inhibitor, full curve]
Cc1sc2nc(CSc3nnc(Cc4cccs4)n3C3CCCCC3)[nH]c(=O)c2c1C | inconclusive [inhibitor, full curve, poor fit]
CC(C)Oc1ccc(S(=O)(=O)N2CCCCC2)cc1NC(=O)C1=COCCO1 | inactive
CC1(C)NC(=O)N(CC(=O)NNC(=O)c2ccccc2F)C1=O | inconclusive [inhibitor, partial curve]
CCOC(=O)Cn1c(=O)oc2cc(S(=O)(=O)NC3CCCCC3)ccc21 | inactive
CC(/C=C/c1ccccc1)=N/NC(=O)CNC(=O)c1ccc2c(c1)OCO2 | inconclusive [inhibitor, partial curve]
CCCCN(C(=O)C1CC(=O)N(CCc2ccc(OC)c(OC)c2)C1)c1c(N)n(CCCC)c(=O)[nH]c1=O (configuration not stated) | inconclusive [inhibitor, full curve, poor fit]
CSc1ccc(CN2CCN(C(=O)CC(C)C)CC2)cc1 | inconclusive [inhibitor, single point]
Clc1ccccc1OCCSc1nnc(-c2cccs2)o1 | inactive
Cc1nc2ccc(NS(=O)(=O)c3ccccc3Cl)cc2s1 | inconclusive [inhibitor, full curve, poor fit]
CCn1cc(CNC(=O)c2cc(-c3ccc(C)cc3)nc3ccc(Br)cc23)c(C)n1 | inactive
O=C(COC(=O)c1cccc([N+](=O)[O-])c1)c1ccc2c(c1)OCO2 | inconclusive [inhibitor, partial curve, poor fit]
CN(C)c1ccc(CN(C(=O)COc2ccc(Br)cc2)C2CCS(=O)(=O)C2)cc1 (configuration not stated) | inconclusive [inhibitor, partial curve, poor fit]
CC1(c2ccc(Cl)cc2)NC(=O)N(CC(=O)Nc2cccnc2Cl)C1=O (configuration not stated) | inconclusive [inhibitor, full curve, poor fit]
CC(C)OCCCNC(=O)Nc1cccc2ccccc12 | inactive
O=C(NC(Cc1c[nH]c2ccccc12)C(=O)NCc1ccc(F)cc1)OCc1ccccc1 (configuration not stated) | inconclusive [inhibitor, partial curve, poor fit]
CCOc1ccc(CCNC(=O)C2CCCN(S(=O)(=O)N(C)c3ccc(F)cc3)C2)cc1 (configuration not stated) | inactive
COc1ccc(Cl)cc1N(CC(=O)NCCSc1ccccn1)S(=O)(=O)c1ccccc1 | inconclusive [inhibitor, partial curve, poor fit]
Nn1c(SCC(=O)Nc2ccc3c(c2)OCCO3)nnc1C(F)(F)F | inconclusive [inhibitor, full curve, poor fit]
